# Measurements from PubChem BioAssay AID504332 (National Center for Advancing Translational Sciences (NCATS), 2011).
# Among all 350,000 compounds or so, about 31,000 (8.9%) were called active. Inconclusive means that the source gave no clear call. Such entries were picked first, then a sample of the others. Calls follow the shape of the dose curve; as a rule, active = well fitted inhibition curve with a large enough effect; inconclusive = small, poorly fitted or top-dose-only effect; inactive = no such curve, though single readings can be large or run the other way. A potency beside an inconclusive call is a rough fit, not a confirmed value.
# Target: Histone-lysine N-methyltransferase EHMT2 (Homo sapiens) (UniProt Q96KQ7)
# Sequence of UniProt Q96KQ7 (Q96KQ7 whole entry, looked up): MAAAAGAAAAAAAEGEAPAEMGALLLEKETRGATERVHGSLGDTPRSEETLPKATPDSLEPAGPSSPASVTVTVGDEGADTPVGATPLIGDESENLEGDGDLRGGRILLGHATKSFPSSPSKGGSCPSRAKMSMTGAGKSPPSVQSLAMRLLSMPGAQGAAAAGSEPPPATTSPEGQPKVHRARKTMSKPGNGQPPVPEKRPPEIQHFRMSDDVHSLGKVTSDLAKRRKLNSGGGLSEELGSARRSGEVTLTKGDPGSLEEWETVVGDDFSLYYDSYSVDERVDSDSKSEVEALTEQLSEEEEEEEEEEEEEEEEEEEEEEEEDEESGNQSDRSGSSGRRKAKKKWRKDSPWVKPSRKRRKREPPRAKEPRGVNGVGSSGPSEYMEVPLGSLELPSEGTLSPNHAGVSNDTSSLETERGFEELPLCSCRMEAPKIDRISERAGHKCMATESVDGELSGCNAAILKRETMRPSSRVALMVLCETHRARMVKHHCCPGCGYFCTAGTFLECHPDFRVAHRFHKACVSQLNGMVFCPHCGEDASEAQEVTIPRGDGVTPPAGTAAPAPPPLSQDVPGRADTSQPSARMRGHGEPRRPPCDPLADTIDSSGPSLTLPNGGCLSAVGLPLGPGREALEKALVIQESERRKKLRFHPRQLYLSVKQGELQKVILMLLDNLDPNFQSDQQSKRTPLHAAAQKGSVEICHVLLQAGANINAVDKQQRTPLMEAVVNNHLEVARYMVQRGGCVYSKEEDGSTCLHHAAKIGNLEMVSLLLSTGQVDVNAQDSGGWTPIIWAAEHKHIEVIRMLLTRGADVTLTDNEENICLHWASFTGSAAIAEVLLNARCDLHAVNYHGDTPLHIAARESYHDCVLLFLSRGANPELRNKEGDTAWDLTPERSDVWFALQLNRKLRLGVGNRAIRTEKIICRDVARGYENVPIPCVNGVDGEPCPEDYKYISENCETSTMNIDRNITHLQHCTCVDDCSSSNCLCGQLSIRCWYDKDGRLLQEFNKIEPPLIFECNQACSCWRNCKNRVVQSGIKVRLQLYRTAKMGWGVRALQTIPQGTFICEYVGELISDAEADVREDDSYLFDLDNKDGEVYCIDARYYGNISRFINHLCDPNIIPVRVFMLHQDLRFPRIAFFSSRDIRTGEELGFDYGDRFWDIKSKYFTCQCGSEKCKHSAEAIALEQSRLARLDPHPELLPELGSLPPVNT
# Assay: qHTS Assay for Inhibitors of Histone Lysine Methyltransferase G9a; also: nearly all actives have a fitted effect of over 75% in size
# Settings: G9a H3K9 monomethylation, AlphaScreen, 2 h; activity, negative = inhibition: at 59 µM (top of the series) unless noted
# In short: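 AlphaScreen detection with an anti-monomethyl H3K9 antibody quantified product after a 2 h room-temperature reaction containing 500 nM biotinylated H3K9 peptide, 20 µM SAM and 20 nM enzyme, which had been preincubated 15 min with compound.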
# % is scaled to controls: 0 for no effect and ±100 for the full control effect; potency is read from the fitted curve at half-maximal effect; tags tell the direction and shape of the fitted curve.
SMILES,Potency,"activity, negative = inhibition"
C#CCn1cc(/C=N/Nc2nc3ccccc3[nH]2)c2ccccc21,active: 50.1 µM,–
Cc1ccc(Nc2c([N+](=O)[O-])c(=O)oc3ccccc23)cc1,inactive,–
CC[C@H](C)C(C(=O)N1CCN(C(=O)OC(C)(C)C)CC1)n1cc(C(CO)NC(=O)OC(C)(C)C)nn1 (some centres not stated),inactive,–
C=C(C)CN(CC)C(=O)CSc1ccc(S(=O)(=O)N2CCN(C)CC2)cn1,active: 44.7 µM,–
Cn1cccc1Cc1nnc(SCC(=O)Nc2ccc3c(c2)OCO3)n1-c1ccc(F)cc1,active: 44.7 µM,–
Cc1ccc(C(=O)Nc2scc(-c3ccccc3)c2C(=O)O)o1,"inconclusive: 44.7 µM [inhibitor, partial curve]",–
CCCCCC(=O)N1CC2(CC(c3cccc(NC(=O)[C@@H]4CCC(=O)N4)c3)=NO2)C[C@@H]1C(N)=O (some centres not stated),–,inactive: -0.158% [at 12.7 µM]
COC(=O)c1ccc(Cl)c(NC(=O)CN(c2ccccc2)S(=O)(=O)c2ccc(OC)cc2)c1,inactive,–
COc1cc(NC(=O)CN(C)S(=O)(=O)c2ccc3[nH]c4c(c3c2)CCCC4)cc(OC)c1OC,"inconclusive: 12.6 µM [inhibitor, partial curve]",–
N#Cc1ccccc1OCC(=O)N1CCN(C(=O)c2ccco2)CC1,inactive,–
Cc1ccsc1/C=N/Nc1ccc(F)cc1F,active: 1.26 µM,–
CCOc1ccc(N(CC(=O)N2CCN(c3ccccc3OC)CC2)S(=O)(=O)c2ccc(F)cc2)cc1,"inconclusive: 12.6 µM [inhibitor, full curve]",–
N#Cc1cc(C#N)c(SCC(=O)N2CC(=O)Nc3ccccc32)nc1N,"inconclusive: 6.31 µM [inhibitor, single point]",–
COC(=O)C(NC(=O)COc1ccccc1)(Nc1nc2c(s1)CCCC2)C(F)(F)F (configuration not stated),"inconclusive: 5.62 µM [inhibitor, full curve, poor fit]",–
COc1ccc(N2CCN(C(=O)C34CCC(C)(C(=O)C3)C4(C)C)CC2)cc1 (configuration not stated),"inconclusive: 1.58 µM [inhibitor, partial curve, poor fit]",–
COc1cccc(/C=C/C(=O)OCC(=O)c2ccc3c(c2)NC(=O)CO3)c1,"inconclusive: 3.98 µM [inhibitor, single point]",–
CC(C)c1nnc(NC(=O)C2CCCO2)s1 (configuration not stated),"inconclusive: 89.1 µM [inhibitor, single point]",–
Oc1ccc(-n2cccc2/C=N/n2cnnc2)cc1,"inconclusive: 89.1 µM [inhibitor, partial curve, poor fit]",–
NS(=O)(=O)c1ccc(CCNS(=O)(=O)c2cccc3nsnc23)cc1,"inconclusive: 89.1 µM [inhibitor, single point]",–
CCOC(=O)C1CCCN(C(=O)C2CCN(c3nnc(C)c4c(C)n(-c5ccccc5)nc34)CC2)C1 (configuration not stated),inactive,–
C/C(=N\NC(N)=O)c1ccc(Cl)cc1,–,inactive: 32.8% [at 12.7 µM]
CN(C)/N=C/C=C1\CCC/C(=C\c2ccc(F)c(F)c2)C1=O,"inconclusive: 50.1 µM [inhibitor, partial curve, poor fit]",–
CCN(CC)C(=O)c1sc2nc(-c3cccs3)cc(-c3cccs3)c2c1N,active: 31.6 µM,–
CCc1ccc(CNC(=O)C(CC)n2ccc3cc(S(=O)(=O)N4CCCCC4)ccc32)cc1 (configuration not stated),inactive,–

SMILES,Potency,"activity, negative = inhibition"
CCOc1ccc(N=Nc2c(N)[nH][nH]c2=O)cc1,active: 3.55 µM,–
COc1ccc(CNS(=O)(=O)c2cc(C(=O)Nc3cc(Cl)cc(Cl)c3)ccc2F)cc1,inactive,–
Cc1ccc(C)c(S(=O)(=O)N2CCCOC2CNC(=O)C(=O)NCCc2ccco2)c1 (configuration not stated),"inconclusive: 89.1 µM [inhibitor, single point]",–
CCOC(=O)C1C(=O)C(C(=O)OCC)C(c2cccnc2)NC1c1cccnc1 (configuration not stated),"inconclusive: 50.1 µM [inhibitor, single point]",–
CN1C/C(=C/c2ccsc2)C(=O)/C(=C/c2ccsc2)C1,"inconclusive: 39.8 µM [inhibitor, single point]",–
CCc1nccn1S(=O)(=O)c1cc(Br)ccc1OC,"inconclusive: 2.24 µM [inhibitor, partial curve, poor fit]",–
CCOC(=O)c1sc(NC(C)=O)nc1-c1ccccc1,"inconclusive: 8.91 µM [inhibitor, single point]",–
CS(=O)(=O)c1ccc(-c2nc(-c3ccc(F)cc3)c(-c3ccncc3)[nH]2)cc1,inactive,–
COc1cc2c(cc1OC)CN(C(=O)c1ccc([N+](=O)[O-])o1)CC2,active: 56.2 µM,–
COc1ccc2[nH]c(C(=O)O)c(NC(=O)c3cc(OC)c(OC)c(OC)c3)c2c1,"inconclusive: 89.1 µM [inhibitor, single point]",–
N#CC(c1ccccc1)N(CCCCl)C(=O)c1ccc(Br)cc1 (configuration not stated),"inconclusive: 3.55 µM [inhibitor, full curve]",–
Cc1ccc(NC(=O)CCC(=O)NNS(=O)(=O)c2ccccc2)c(C)c1,active: 50.1 µM,–
COc1ccc(N2CCN(C(=O)C3CCN(S(=O)(=O)c4cnc[nH]4)CC3)CC2)cc1,"inconclusive: 39.8 µM [inhibitor, partial curve, poor fit]",–
Cc1ccc(NC(=O)N2CCC(=O)N2)cc1,"inconclusive: 10 µM [inhibitor, partial curve, poor fit]",–
C=CCNC(=O)CN1CCC(O)(c2ccc(F)cc2)CC1,inactive,–
Cc1ccc(S(=O)(=O)N/N=C/c2ccc(OCC(=O)N3CCOCC3)cc2)cc1,inactive,–
O=C(CN1C(=O)c2ccccc2C1=O)NN1C(=O)c2ccccc2C1=O,"inconclusive: 25.1 µM [inhibitor, single point]",–
Cc1ccc(C)c(NC(=O)C2CC=CCC2C(=O)O)c1 (configuration not stated),inactive,–
O=C(O)CCCC(=O)Nc1cccc2cccnc12,–,inactive: -6.54% [at 2.33 µM]
COc1cc2oc(=O)cc(-c3ccc(-c4ccc(CO)cc4)cc3)c2c(OC)c1OC,inactive,–
COc1ccc(Cn2nnnc2C(c2cc3ccc(OC)cc3[nH]c2=O)N2CCCCCC2)cc1 (configuration not stated),active: 8.91 µM,–
O=C(CS(=O)(=O)c1ccccc1)Nc1ncc([N+](=O)[O-])s1,"inconclusive: 70.8 µM [inhibitor, partial curve, poor fit]",–
O=C(CSc1nnc(CNC(=O)c2ccccc2)o1)NCc1ccccc1,"inconclusive: 89.1 µM [inhibitor, single point]",–
Cc1ccn2cc(-c3cccc(NC(=O)C(C)C)c3)nc2c1,inactive,–

SMILES,Potency,"activity, negative = inhibition"
CCn1c(C)c(C)c2cc(C(=O)NCCc3cc(OC)c(OC)c(OC)c3)ccc21,"inconclusive: 28.2 µM [inhibitor, single point]",–
Cc1ccc(C(=O)NCCNc2ccc(Cl)cc2[N+](=O)[O-])o1,–,inconclusive: -60.3% [inhibitor]
CCCCc1c(O)nc(SCC(=O)O)[nH]c1=O,"inconclusive: 56.2 µM [inhibitor, partial curve, poor fit]",–
CCCc1nc(C)cc(N2CCN(c3ccccc3)CC2)n1,active: 50.1 µM,–
O=C(Nc1cc(C(F)(F)F)ccc1N1CCOCC1)c1cn2ccccc2n1,"inconclusive: 50.1 µM [inhibitor, partial curve]",–
Cc1ccc(S(=O)(=O)N(C)C)cc1NC(=S)Nc1ccc2cn[nH]c2c1,"inconclusive: 89.1 µM [inhibitor, single point]",–
CCC(=O)c1ccc(OCCSc2ncccn2)cc1,inactive,–
COc1ccc(Cn2c(C(=O)O)c(CNCc3cccs3)c3ccc(C)cc32)cc1,"inconclusive: 4.47 µM [inhibitor, partial curve, poor fit]",–
COc1ccccc1C(=O)NC(CCSC)C(=O)NNC(=O)c1ccc(F)cc1 (configuration not stated),"inconclusive: 22.4 µM [inhibitor, partial curve, poor fit]",–
COc1ccc(-c2c3c(=O)n(C)c(=O)n(C)c3c3c(-c4ccccc4)nc4ccccc4n23)cc1,inactive,–
CC1(C)CCC=[N+]1[O-],–,inactive: 21.5% [at 12.7 µM]
CCOc1cc(N2CCOCC2)c(OCC)cc1NC(=O)c1cc(S(=O)(=O)N2CCOCC2)ccc1Cl,active: 50.1 µM,–
CC(C)(C)C1CC=C2C(C#N)=C(N)C(C#N)(C#N)C(c3cccs3)C2C1 (configuration not stated),active: 50.1 µM,–
CC(/C=N/Nc1nnc(C)c(=O)[nH]1)=C\c1ccccc1,active: 10 µM,–
Cc1ccc(SCc2[nH]nc3c2C(c2ccco2)C(C#N)=C(N)O3)cc1 (configuration not stated),"inconclusive: 2.82 µM [inhibitor, partial curve]",–
Cc1ccc(S(=O)(=O)N/N=C2\C(=O)C3(C)CCC2C3(C)C)cc1 (configuration not stated),active: 14.1 µM,–
O=C(Nc1ccc2nc(SCC(=O)N3CCOCC3)sc2c1)c1ccc(F)cc1,inactive,–
CNC(=O)c1cc2c(n(-c3ccc(C)cc3)c1=O)CC(C)(C)CC2=O,inactive,–
COc1ccccc1N1CCN(C(=O)C2CCN(S(=O)(=O)c3ccccc3)CC2)CC1,"inconclusive: 89.1 µM [inhibitor, partial curve, poor fit]",–
CCN(C=NC1=NN(c2cccc(C(F)(F)F)c2)CC1)CC,"inconclusive: 2 µM [inhibitor, partial curve, poor fit]",–
COc1cccc(CNC(=O)CCCNC(=O)c2ccc(Cl)cc2)c1,"inconclusive: 89.1 µM [inhibitor, single point]",–
CCOc1ccc(C2C3=C(CC(C)(C)CC3=O)N(CC(=O)O)C3=C2C(=O)CC(C)(C)C3)cc1OCC,active: 50.1 µM,–
CC(=O)c1cc(O)c2ccccc2c1O,active: 3.16 µM,–
COc1ccccc1C1C=C(c2ccc(F)cc2)Nc2nc(-c3ccc(Cl)cc3)nn21 (configuration not stated),"inconclusive: 7.94 µM [inhibitor, partial curve]",–
